{
  "source": "ChEMBL document CHEMBL4888484",
  "about": "“Replenishing the malaria drug discovery pipeline: Screening and hit evaluation of the MMV Hit Generation Library 1 (HGL1) against asexual blood stage Plasmodium falciparum ,using a nano luciferase reporter read-out” (2022)",
  "note": "About 540 (0.36%) of roughly 150,000 compounds showed an effect of 50% or more. Some of the results follow.",
  "data": [
    {"system": "Plasmodium falciparum", "experiment": "Primary screen in NF54 nanoGlo assay, in single point, at 2uM, 72h; a lower Z score goes with more inhibition", "format": "functional, Erythrocyte", "settings": "timepoint 72 hour", "units": {"% Inhibition": "%"}, "values": [
      {"compound": "O=C(O)c1cccc(CN2CCC[C@H](S(=O)(=O)Nc3ccccc3)C2)c1", "% Inhibition": -7, "Z score": 0.72},
      {"compound": "COCCCC(=O)NCc1ccc(N(C)C)c(C)c1", "% Inhibition": -3, "Z score": 0.44},
      {"compound": "CC(C)n1cc(C(=O)N2CCC(Nc3nccs3)CC2)cn1", "% Inhibition": 4, "Z score": -0.47},
      {"compound": "CCc1nc(CN2CCC3(CCCCCC3)C2)n[nH]1", "% Inhibition": -9, "Z score": 1.2},
      {"compound": "CC(C)c1nnc(CN[C@H](c2ccccc2)C2(CO)CCCC2)o1", "% Inhibition": -20, "Z score": 3.84},
      {"compound": "CC(C)CC(=O)N(Cc1nccn1Cc1ccc(Cl)cc1Cl)CC1CC1", "% Inhibition": -8, "Z score": 0.76},
      {"compound": "CC(=O)c1c(C)nc(C(Cl)(Cl)Cl)nc1N", "% Inhibition": -15, "Z score": 1.98},
      {"compound": "CC(C)(C)C1CCC(OC[C@@H](O)CN2CCCCC2)CC1", "note": "(stereo not given in full)", "% Inhibition": -1, "Z score": 0.14},
      {"compound": "CCn1c(-c2ccccc2F)nc2cc(C(=O)NCCc3ccccn3)cc(NC(C)=O)c21", "% Inhibition": 1, "Z score": -0.23},
      {"compound": "CCc1nc(-c2ccc(C(=O)NCC(=O)N3CCN(c4ccccc4)CC3)cc2)no1", "% Inhibition": 1, "Z score": -0.25},
      {"compound": "CC(=O)N1CCC(CCOc2ccccc2)CC1", "% Inhibition": -12, "Z score": 2.27},
      {"compound": "CCOC(=O)c1sc(N(C)C[C@H](O)COC)nc1C", "% Inhibition": -14, "Z score": 1.15},
      {"compound": "O=C(CC1CCCC1)NCc1cccnc1-c1ccsc1", "% Inhibition": -6, "Z score": 0.93},
      {"compound": "CN(Cc1cnn(-c2ccccc2)c1)c1cc(CCN)ncn1", "% Inhibition": -11, "Z score": 1.67},
      {"compound": "O=C(CCn1nc2ccccn2c1=O)OCc1nc(-c2ccncc2)no1", "% Inhibition": 25, "Z score": -2.79},
      {"compound": "Cc1cc(N2CCC[C@@]3(CCC(=O)N(Cc4cccnc4)C3)C2)nc(N)n1", "% Inhibition": 3, "Z score": -0.6},
      {"compound": "Cc1ccc(O[C@H]2COCC[C@H]2NC2Cc3ccccc3C2)cn1", "% Inhibition": -3, "Z score": 0.52},
      {"compound": "c1ccc(CN2CCC(Nc3cnc4c(c3)COCC4)CC2)cc1", "% Inhibition": -7, "Z score": 1.31},
      {"compound": "COc1cccc(CN2C(=O)CCCC[C@H]2C(=O)N2CCCCC2)c1", "% Inhibition": -10, "Z score": 1.17},
      {"compound": "CC(C)CNC(=O)N1CCC2(CC1)C[C@@H](N(C)Cc1ccccc1)CCO2", "% Inhibition": -2, "Z score": 0.3},
      {"compound": "CC[C@H](C)[C@H](N)C(=O)N1CCC2(C1)OCCO2", "% Inhibition": -8, "Z score": 0.97},
      {"compound": "O=C(Nc1nnc(C2CC2)s1)c1ccccc1OCc1ccccc1", "% Inhibition": -5, "Z score": 0.58},
      {"compound": "O=C1CCCN1c1ccc(-c2nc(C3CC3)n[nH]2)cc1", "% Inhibition": 1, "Z score": -0.08},
      {"compound": "CC(C)CCN(C(=O)[C@@H](C)Cn1cncn1)C1CC1", "% Inhibition": -7, "Z score": 0.7},
      {"compound": "CCc1ccccc1C(=O)N1CC[C@H](N(C)C)[C@H](CCCO)C1", "% Inhibition": -6, "Z score": 0.84},
      {"compound": "O=C(NC1CCCCC1)N1CC[C@@H]2COC(=O)N(Cc3ccccc3)[C@@H]2C1", "% Inhibition": -3, "Z score": 0.52},
      {"compound": "Cc1nc(Cn2nnc(NS(=O)(=O)c3ccc(F)cc3)c2C)no1", "% Inhibition": -7, "Z score": 0.72},
      {"compound": "C[C@H]1C[C@@H](C(F)F)n2ncc(C(=O)N3CCO[C@H]4CCC[C@H]43)c2N1", "% Inhibition": -3, "Z score": 0.41},
      {"compound": "O=C(Nc1nnc(-c2cc3ccccc3o2)s1)NC1(CO)CCCC1", "% Inhibition": -14, "Z score": 2.71},
      {"compound": "COc1cc(NC2CCN([C@@H](C)C(=O)N(C(C)C)C(C)C)CC2)cc(OC)c1", "% Inhibition": 1, "Z score": -0.2},
      {"compound": "Cc1nc(C)c(CC(=O)NCCc2ccc(Cl)cc2)s1", "% Inhibition": 1, "Z score": -0.1},
      {"compound": "COc1cccn(CC[C@H]2CCCCN2C)c1=O", "% Inhibition": -8, "Z score": 1.52},
      {"compound": "O=C(Nc1nc(CN2CCCCCC2)cs1)c1ccc(Br)cc1F", "% Inhibition": -11, "Z score": 1},
      {"compound": "CCC[C@]1(COC)CCCN1C(=O)Nc1ncsc1C(C)C", "% Inhibition": -35, "Z score": 4.14},
      {"compound": "Cc1noc(C)c1NC(=O)[C@@H]1CCCc2ccccc21", "% Inhibition": 2, "Z score": -0.36},
      {"compound": "O=C(OCCF)N(Cc1cncs1)Cc1cncs1", "% Inhibition": -3, "Z score": 0.52},
      {"compound": "Cc1cc(=O)n2c3c(cc(S(=O)(=O)NCc4ccc(C(=O)O)cc4)cc13)CC2", "% Inhibition": 0, "Z score": 0.07},
      {"compound": "O=C(Nc1ccc(CCN2CCC(O)CC2)cc1)c1ccsc1", "% Inhibition": -4, "Z score": 0.73},
      {"compound": "C#CCCC1(CCC(=O)Nc2ccc3nccn3c2)N=N1", "% Inhibition": -7, "Z score": 0.81},
      {"compound": "COc1ccc(CNC(=O)Cn2ccc3ccccc3c2=O)cc1", "% Inhibition": 0, "Z score": -0.04},
      {"compound": "CC(C)(C)c1cn(C[C@H]2CCCN(C(=O)NC3CCCCCC3)C2)nn1", "% Inhibition": -20, "Z score": 3.68},
      {"compound": "CN1CC[C@@H](C(=O)NCc2cccc(OCC(F)F)n2)S1(=O)=O", "% Inhibition": -7, "Z score": 1.1},
      {"compound": "Cc1c(Cl)c(C(F)F)nn1CC(=O)Nc1sc2c(c1C#N)CCC2", "% Inhibition": -7, "Z score": 1.13},
      {"compound": "Cc1cccc(Cl)c1C(=O)NC[C@H]1CCCN(CC(=O)N2CCCC2)C1", "% Inhibition": 0, "Z score": -0.1},
      {"compound": "Cc1ncc(CN(C)C(=O)CCc2c(C)[nH]c(=O)c(C#N)c2C)s1", "% Inhibition": -5, "Z score": 0.43},
      {"compound": "O=C(C1CCCCC1)N1CCc2cnccc21", "% Inhibition": -7, "Z score": 0.84},
      {"compound": "CCCn1ncc(C(=O)N[C@@H](CC)c2cn3cccnc3n2)c1C", "% Inhibition": -11, "Z score": 2.07},
      {"compound": "CN(C)c1ccccc1C(=O)NCc1cnn2cccnc12", "% Inhibition": -1, "Z score": 0.22},
      {"compound": "COc1ccc(CCNC(=O)N2CCN(CC(C)(C)O)C[C@@H]2C)cc1F", "% Inhibition": -7, "Z score": 1.33},
      {"compound": "CCN(CCC(C)(C)C)CC(=O)Nc1ccc(NC(C)=O)cc1", "% Inhibition": -3, "Z score": 0.52},
      {"compound": "COc1ccc(-c2ccc(N3CCCN(C(=O)CN(C(=O)c4ccc(Cl)cc4)C(C)C)CC3)nn2)cc1OC", "% Inhibition": -8, "Z score": 0.86},
      {"compound": "Cc1nn(C)cc1C(=O)N1CCN(c2ncccn2)[C@H]2CS(=O)(=O)C[C@H]21", "% Inhibition": -4, "Z score": 0.51},
      {"compound": "COC(=O)c1ccc2c(c1)CC[C@H](NCc1ccncc1F)C(=O)N2", "% Inhibition": -3, "Z score": 0.44},
      {"compound": "O=C(O)[C@@H]1CCCN1S(=O)(=O)c1cccc2cccc(Cl)c12", "% Inhibition": -6, "Z score": 0.67},
      {"compound": "C(=C\\c1nnc(-c2ccccc2)o1)/c1cc2ccccc2o1", "% Inhibition": 0, "Z score": -0.03}
    ]}
  ]
}
